Over roughly 33,000 sequences, “E-score (-0.5 to 0.5)” has its median near -0.041; the highest 2% begin near 0.37. Some of the results follow.
biological target: T1, Ecm22 (UniProt Q05958); assay: PBM E-score (8-mer binding enrichment) (E-score (-0.5 to 0.5)); higher = stronger / more preferred TF binding; most listed sequences are background and not binding sites; conditions: protein concentration: 200 nM; construct: GST-full length
T1 sequence: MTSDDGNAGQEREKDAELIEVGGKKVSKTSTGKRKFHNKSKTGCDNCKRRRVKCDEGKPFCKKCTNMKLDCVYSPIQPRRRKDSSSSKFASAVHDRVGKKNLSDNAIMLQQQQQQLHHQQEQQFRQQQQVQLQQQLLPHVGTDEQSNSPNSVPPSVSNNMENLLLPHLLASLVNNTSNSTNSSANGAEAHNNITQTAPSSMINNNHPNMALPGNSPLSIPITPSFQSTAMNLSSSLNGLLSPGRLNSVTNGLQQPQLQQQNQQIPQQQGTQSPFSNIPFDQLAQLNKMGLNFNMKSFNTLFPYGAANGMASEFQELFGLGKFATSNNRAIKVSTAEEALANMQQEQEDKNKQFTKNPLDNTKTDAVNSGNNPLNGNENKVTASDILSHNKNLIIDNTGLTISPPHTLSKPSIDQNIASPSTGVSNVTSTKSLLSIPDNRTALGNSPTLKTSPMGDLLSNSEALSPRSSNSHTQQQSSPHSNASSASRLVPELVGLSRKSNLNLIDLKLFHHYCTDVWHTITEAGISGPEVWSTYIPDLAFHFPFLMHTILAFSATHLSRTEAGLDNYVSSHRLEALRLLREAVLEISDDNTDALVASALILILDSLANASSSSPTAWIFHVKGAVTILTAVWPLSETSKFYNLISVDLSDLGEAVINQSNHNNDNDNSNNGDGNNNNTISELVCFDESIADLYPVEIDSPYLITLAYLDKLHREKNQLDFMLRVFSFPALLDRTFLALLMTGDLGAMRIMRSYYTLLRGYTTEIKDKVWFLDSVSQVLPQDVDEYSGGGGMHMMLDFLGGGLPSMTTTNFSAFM
Procedure: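 Universal 'all 10-mer' protein binding microarrays (Agilent AMADID 015681) probed with GST-tagged S. cerevisiae TFs (full-length or DBD) made by in vitro transcription/translation (PURExpress), about 100-200 nM. Bound TF was detected with fluorescent anti-GST. Each ungapped 8-mer (which stands for itself and its reverse complement) is scored by the PBM enrichment score (E-score), a modified Wilcoxon-Mann-Whitney statistic from -0.5 to +0.5, computed with the Universal PBM Analysis Suite. Scale: above 0.35 generally sequence-specific binding.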

Sequence	PBM E-score
CGTGCAAA	-0.137
CCAGATCC	-0.198
GGCAAACA	-0.2
ACGGTCCG	0.176
GGGCACAA	-0.14
GTCGAAGA	-0.132
CGACGTAC	0.35
CGTAGACG	0.166
CGCCCTAC	-0.15
AACAACTC	-0.00449
GCGTGTAA	-0.102
TCATATAA	-0.193
GTACATCA	0.152
CCACCAGA	-0.0149
TAAATTCA	0.132
AGCTGCCT	-0.333
ATCGAATA	0.138
GGGAGAGA	-0.267
CTCTAGAA	-0.201
CCTTGGGC	-0.116
AGCTTTAG	-0.124
GAATTGGC	-0.156
ATAAACAT	-0.022
GTATGCAA	0.0567
TAAGCTGA	-0.135

Sequence	PBM E-score
CAATCCAC	-0.234
ACCGTGTA	0.0789
AACCGGTA	0.0342
TAACCTAA	-0.0807
CTCACCAC	-0.312
CTGAAGAA	-0.264
ATAACACA	0.135
ATTGTTGA	0.0144
AAGTAGTG	-0.0663
ATGCAAGC	-0.21
GGTAGCAA	-0.00923
ATAGATCA	0.0938
AGTTAGAC	-0.00566
AGTCAGAA	-0.151
CTGGCAAC	-0.234
TATCTAGA	0.0399
CATGATGG	-0.259
ACAGCCTG	-0.367
CGGCACAC	0.0517
GAAGCAGC	-0.121
AGGTAGCC	-0.323
CATCGGCC	-0.179
CATATTGC	-0.22
ATCTAATC	-0.138
ACAGAAGG	-0.195

Sequence	PBM E-score
CTTGAGTA	-0.0849
CTAGTAAG	-0.315
ATTTATAA	0.0523
ACGCTACT	0.0853
CAGGCAGC	-0.317
AGATCATC	-0.0184
ACGAAGAG	0.341
AGAGCTAA	-0.07
ATACTCTG	0.106
ATAGTTGA	-0.00036
AAGGAGAA	0.107
CCGGATGC	-0.0883
CTTGATTC	-0.129
ACCCAACA	-0.164
CGCACAAG	0.159
AAAAGATT	-0.0824
CAGAGCTA	-0.318
CAATACAA	-0.0208
GGTGCCTA	-0.199
CACATTTC	0.0286
CAGGGAGC	-0.0668
GAGGAGAA	-0.00099
CATAACTA	-0.0843
CTTAGCCA	-0.133
CGGGTACG	0.452

Sequence	PBM E-score
CTCAGTGC	-0.024
CCAGACTA	-0.0501
TACATGTA	0.0357
CCCCCCAC	-0.446
ATGGGACC	-0.182
CCAATTAG	-0.0911
AGTAACAC	0.011
CTAGCGCA	-0.199
CTCGGGAA	0.17
CCGATCAA	-0.0528
GGATGAAC	0.0291
CCCTAAAA	-0.236
GTCGGCCA	-0.112
ACCAAGCG	0.0397
AACGGACT	0.089
ACGGCACA	0.193
GTCCTCCA	-0.0686
ACATCCAA	0.0358
GTTTATTA	0.232
GGGCGGAA	-0.0827
TAATAGTA	0.128
ATCGGAAG	0.0454
CCTAGGAG	-0.239
AGGGGTAA	-0.125
AACCGGGG	-0.137

Sequence	PBM E-score
AACACCGG	0.00608
CGAGGCGC	0.181
AATGACGC	-0.0189
GACGCGCA	-0.051
TATCATAA	0.066
CGAACCGC	0.281
CGACGCGC	0.234
AGTGAGCA	-0.198
ATCGAGAG	0.0766
CTTGTGCA	-0.0259
AGAGCGTA	0.0978
TACGATGA	0.438
ACCCTACC	-0.0742
CTCTGGGC	-0.288
GCCTTAAC	-0.0996
CCTGTAGC	-0.391
TGGACAAA	-0.132
CCACTGAC	-0.0598
AATTCGAC	-0.134
ACAGTTCG	0.112
CGCACCGA	0.0962
CCGTTTCG	0.262
GATATCAC	0.047
CGTTGCAC	0.261
ACTATTTC	0.105

Sequence	PBM E-score
ACCCCCCG	-0.153
GACTAGTA	-0.167
CACTGTCG	0.109
GGCCAGCC	-0.0939
CGAAGGAC	0.0433
ACAAGCTC	-0.0866
TTTGAAAA	-0.0692
ATTTATTA	0.244
GGACTGAC	-0.187
ATCTCCAT	-0.224
AATTTGAG	-0.12
AATCAGAA	-0.0538
CTCAGCCC	-0.227
AAGGCGGG	-0.109
GTCGCTCA	0.292
ACGATGTG	0.298
TCCTTCAA	-0.225
TCCATCCA	-0.186
AGCTACGA	0.394
CATTCTCC	-0.146
CGATTTTC	0.125
ACGCGTCG	0.32
CGCGTGTA	-0.0126
CCTAGTCC	-0.312
TCTGTACA	0.0389

Sequence	PBM E-score
AGATCTGA	-0.159
ACGTAAAG	0.241
AGTATTGA	-0.0595
CCTCTGCG	0.007
AAACGACA	0.467
CGAATTGA	0.00662
GATTGCAC	-0.0792
CTCCACCC	-0.126
AAGGAACT	-0.0399
ACATATAG	0.0136
TGTGAAAA	-0.186
GATCAGGA	-0.069
GATAGATA	0.0468
ACAGGACT	-0.191
AAGATGGT	-0.101
ATTGACTC	-0.0667
ATGTTCGA	0.0458
GTCAGGGA	-0.19
TACGGATA	0.284
AGCATAAC	0.0747
GCTCGGTA	0.248
CGACTGGC	0.0893
ATACAAGC	0.00134
ACTTTATA	0.115
CAGGGTGG	-0.174

Sequence	PBM E-score
CTGTTGAC	-0.0959
ACATGTGA	-0.18
ACGTCCTC	-0.121
AGATACGC	0.196
CAAAATAA	-0.041
ATCTGAGA	-0.0964
CACATATC	-0.155
GATGACCA	-0.173
ATTCTACC	-0.12
GATCATAC	0.189
AGGAATGG	-0.0846
AGACTTCC	-0.194
AATACACC	0.0737
CGACCTAG	0.0727
GCGCTTCC	0.0166
GCTTGAAA	-0.171
ATAACGTC	-0.00491
TCGCTTCA	0.0662
GCCCCAAA	0.00296
GGCAGACA	0.0507
CTTTGTCA	-0.156
ACCGCAAG	0.0466
CCTCGATA	0.0197
AGTCTGGA	-0.108
GCTTCCTA	-0.0356

Sequence	PBM E-score
AACAAACG	0.316
GCGGTCCC	0.00111
TCTCTACA	-0.132
AGGCACGA	0.0187
TTAGGGAA	-0.0515
CAGAGAAC	-0.0947
ATGAAAGC	0.012
CACGCCTA	-0.135
CCTAGAGC	-0.274
CGGATTAC	0.035
CGTTGGAG	-0.14
GTTTCACA	0.0248
GGCTTTCA	0.0111
ACGTGCCC	0.0357
GACTGCCA	-0.0313
GCCGCCCA	-0.0582
AATGAAGG	0.0103
AGTCAAAG	-0.0501
ACGCACAA	-0.0159
